According to the supplement of paper PMC8728848:
This is one part of the list.

Experiments:
Assay in all cases: glycan array binding signal (z-score within array); higher = stronger binding
Settings in all cases: glycan notation: IUPAC condensed, linker removed
[1] = target: Fuc(a1-2)Gal(b1-4)[Fuc(a1-3)]GlcNAc
Method in brief: (§1)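 Glycan array data were curated from 3228 arrays in the Consortium for Functional Glycomics database and kept only where the protein sequence was available. Glycan names were converted to IUPAC-condensed notation, and columns mapping to the same glycan were averaged. The binding signal is a within-array Z-score, averaged across arrays of the same protein sequence at different concentrations or buffers and across linkers. Negative Z-scores can be read as non-binding.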

[2] = target: Fuc(a1-2)Gal(b1-4)[Fuc(a1-3)]GlcNAc(b1-2)Man(a1-3)[Fuc(a1-2)Gal(b1-4)[Fuc(a1-3)]GlcNAc(b1-2)Man(a1-6)]Man(b1-4)GlcNAc(b1-4)[Fuc(a1-6)]GlcNAc
Method in brief: as §1

[3] = target: Fuc(a1-2)Gal(b1-4)[Fuc(a1-3)]GlcNAc(b1-2)[Fuc(a1-2)Gal(b1-4)[Fuc(a1-3)]GlcNAc(b1-4)]Man(a1-3)[Fuc(a1-2)Gal(b1-4)[Fuc(a1-3)]GlcNAc(b1-2)Man(a1-6)]Man(b1-4)GlcNAc(b1-4)GlcNAc
Method in brief: as §1

[4] = target: Fuc(a1-2)Gal(b1-4)[Fuc(a1-3)]GlcNAc(b1-3)Gal(b1-4)[Fuc(a1-3)]GlcNAc
Method in brief: as §1

[5] = target: Fuc(a1-2)Gal(b1-4)[Fuc(a1-3)]GlcNAc(b1-3)Gal(b1-4)[Fuc(a1-3)]GlcNAc(b1-3)Gal(b1-4)[Fuc(a1-3)]GlcNAc
Method in brief: as §1

[6] = target: Fuc(a1-2)Gal(b1-4)[Fuc(a1-3)]GlcNAc(b1-3)GalNAc
Method in brief: as §1

[7] = target: Fuc(a1-2)Gal(b1-4)[Fuc(a1-3)]GlcNAc(b1-3)[Neu5Ac(a2-6)Gal(b1-4)GlcNAc(b1-6)]Gal(b1-4)Glc
Method in brief: as §1

[8] = target: Fuc(a1-2)Gal3S(b1-4)GlcNAc
Method in brief: as §1

[9] = target: Fuc(a1-2)Gal6S(b1-3)GlcNAc
Method in brief: as §1

[10] = target: Fuc(a1-2)Gal6S(b1-3)GlcNAc6S
Method in brief: as §1

[11] = target: Fuc(a1-2)Gal6S(b1-4)Glc
Method in brief: as §1

[12] = target: Fuc(a1-2)Gal6S(b1-4)Glc6S
Method in brief: as §1

[13] = target: Fuc(a1-2)[Gal(a1-3)]Gal
Method in brief: as §1

[14] = target: Fuc(a1-2)[Gal(a1-3)]Gal(b1-3)GalNAc
Method in brief: as §1

[15] = target: Fuc(a1-2)[Gal(a1-3)]Gal(b1-3)GalNAc(b1-3)Gal(a1-4)Gal(b1-4)Glc
Method in brief: as §1

[16] = target: Fuc(a1-2)[Gal(a1-3)]Gal(b1-3)GlcNAc
Method in brief: as §1

[17] = target: Fuc(a1-2)[Gal(a1-3)]Gal(b1-3)GlcNAc(b1-2)Man(a1-3)[Fuc(a1-2)[Gal(a1-3)]Gal(b1-3)GlcNAc(b1-2)Man(a1-6)]Man(b1-4)GlcNAc(b1-4)GlcNAc
Method in brief: as §1

[18] = target: Fuc(a1-2)[Gal(a1-3)]Gal(b1-3)GlcNAc(b1-2)Man(a1-3)[Fuc(a1-2)[Gal(a1-3)]Gal(b1-3)GlcNAc(b1-2)Man(a1-6)]Man(b1-4)GlcNAc(b1-4)[Fuc(a1-6)]GlcNAc
Method in brief: as §1

[19] = target: Fuc(a1-2)[Gal(a1-3)]Gal(b1-3)GlcNAc(b1-3)GalNAc
Method in brief: as §1

[20] = target: Fuc(a1-2)[Gal(a1-3)]Gal(b1-3)GlcNAc(b1-6)GalNAc
Method in brief: as §1

[21] = target: Fuc(a1-2)[Gal(a1-3)]Gal(b1-4)Glc
Method in brief: as §1

[22] = target: Fuc(a1-2)[Gal(a1-3)]Gal(b1-4)GlcNAc
Method in brief: as §1

[23] = target: Fuc(a1-2)[Gal(a1-3)]Gal(b1-4)GlcNAc(b1-2)Man
Method in brief: as §1

[24] = target: Fuc(a1-2)[Gal(a1-3)]Gal(b1-4)GlcNAc(b1-2)Man(a1-3)[Fuc(a1-2)[Gal(a1-3)]Gal(b1-4)GlcNAc(b1-2)Man(a1-6)]Man(b1-4)GlcNAc(b1-4)GlcNAc
Method in brief: as §1

[25] = target: Fuc(a1-2)[Gal(a1-3)]Gal(b1-4)GlcNAc(b1-2)Man(a1-3)[Fuc(a1-2)[Gal(a1-3)]Gal(b1-4)GlcNAc(b1-2)Man(a1-6)]Man(b1-4)GlcNAc(b1-4)[Fuc(a1-6)]GlcNAc
Method in brief: as §1

[26] = target: Fuc(a1-2)[Gal(a1-3)]Gal(b1-4)GlcNAc(b1-3)GalNAc
Method in brief: as §1

[27] = target: Fuc(a1-2)[Gal(a1-3)]Gal(b1-4)GlcNAc(b1-3)[Fuc(a1-2)[Gal(a1-3)]Gal(b1-4)GlcNAc(b1-6)]GalNAc
Method in brief: as §1

[28] = target: Fuc(a1-2)[Gal(a1-3)]Gal(b1-4)GlcNAc(b1-6)GalNAc
Method in brief: as §1

[29] = target: Fuc(a1-2)[Gal(a1-3)]Gal(b1-4)[Fuc(a1-3)]Glc
Method in brief: as §1

[30] = target: Fuc(a1-2)[Gal(a1-3)]Gal(b1-4)[Fuc(a1-3)]GlcNAc
Method in brief: as §1

[31] = target: Fuc(a1-2)[Gal(a1-3)]Gal(b1-4)[Fuc(a1-3)]GlcNAc(b1-3)GalNAc
Method in brief: as §1

[32] = target: Fuc(a1-2)[Gal(a1-4)]Gal(b1-4)GlcNAc
Method in brief: as §1

[33] = target: Fuc(a1-2)[GalNAc(a1-3)]Gal
Method in brief: as §1

[34] = target: Fuc(a1-2)[GalNAc(a1-3)]Gal(b1-3)GalNAc(a1-3)[Fuc(a1-2)]Gal(b1-4)GlcNAc
Method in brief: as §1

[35] = target: Fuc(a1-2)[GalNAc(a1-3)]Gal(b1-3)GalNAc(b1-3)Gal(a1-4)Gal(b1-4)Glc
Method in brief: as §1

[36] = target: Fuc(a1-2)[GalNAc(a1-3)]Gal(b1-3)GlcNAc
Method in brief: as §1

[37] = target: Fuc(a1-2)[GalNAc(a1-3)]Gal(b1-3)GlcNAc(b1-2)Man(a1-3)[Fuc(a1-2)[GalNAc(a1-3)]Gal(b1-3)GlcNAc(b1-2)Man(a1-6)]Man(b1-4)GlcNAc(b1-4)GlcNAc
Method in brief: as §1

[38] = target: Fuc(a1-2)[GalNAc(a1-3)]Gal(b1-3)GlcNAc(b1-2)Man(a1-3)[Fuc(a1-2)[GalNAc(a1-3)]Gal(b1-3)GlcNAc(b1-2)Man(a1-6)]Man(b1-4)GlcNAc(b1-4)[Fuc(a1-6)]GlcNAc
Method in brief: as §1

B1: Als3-N (Candida albicans) (protein)
chain: KTITGVFNSFNSLTWSNAATYNYKGPGTPTWNAVLGWSLDGTSASPGDTFTLNMPCVFKFTTSQTSVDLTAHGVKYATCQFQAGEEFMTFSTLTCTVSNTLTPSIKALGTVTLPLAFNVGGTGSSVDLEDSKCFTAGTNTVTFNDGGKKISINVDFERSNVDPKGYLTDSRVIPSLNKVSTLFVAPQCANGYTSGTMGFANTYGDVQIDCSNIHVGITKGLNDWNYPVSSESFSYTKTCSSNGIFITYKNVPAGYRPFVDAYISATDVNSYTLSYANEYTCAGGYWQRAPFTLRWTGYRNSDAGSNGIVIVATTRTVTDSTTAVTTLPFDPNRDKTKTIEILKPIPTTTITTSYVGVTTSYLTKTAPIGETATVIVDIPYHTTTTVTSKWTGTITSTTTHTNPTDSIDTVIVQVP
In the case of B1, the “glycan array binding signal (z-score)” value [1] is reported as -0.238, the “glycan array binding signal (z-score)” value [2] is reported as 0.604 and the “glycan array binding signal (z-score)” value [3] is reported as 1.57. For the same binder, the “glycan array binding signal (z-score)” value [4] was -0.301, the “glycan array binding signal (z-score)” value [5] was -0.266 and the “glycan array binding signal (z-score)” value [6] was 1.01. For the same binder, the “glycan array binding signal (z-score)” value [7] was -0.282, the “glycan array binding signal (z-score)” value [8] was -0.251 and the “glycan array binding signal (z-score)” value [9] was -0.218. For the same binder, the “glycan array binding signal (z-score)” value [10] was 0.105, the “glycan array binding signal (z-score)” value [11] was -0.069 and the “glycan array binding signal (z-score)” value [12] was -0.036. For the same binder, the “glycan array binding signal (z-score)” value [13] was -0.237, the “glycan array binding signal (z-score)” value [14] was -0.211 and the “glycan array binding signal (z-score)” value [15] was -0.13. The “glycan array binding signal (z-score)” value [16] was -0.265, the “glycan array binding signal (z-score)” value [17] was -0.273 and the “glycan array binding signal (z-score)” value [18] was -0.309. The “glycan array binding signal (z-score)” value [19] was -0.163, the “glycan array binding signal (z-score)” value [20] was -0.279 and the “glycan array binding signal (z-score)” value [21] was -0.316. The “glycan array binding signal (z-score)” value [22] was -0.009, the “glycan array binding signal (z-score)” value [23] was -0.192 and the “glycan array binding signal (z-score)” value [24] was 0.048. The “glycan array binding signal (z-score)” value [25] was -0.357, the “glycan array binding signal (z-score)” value [26] was -0.261 and the “glycan array binding signal (z-score)” value [27] was -0.13. The “glycan array binding signal (z-score)” value [28] was -0.082, the “glycan array binding signal (z-score)” value [29] was -0.292 and the “glycan array binding signal (z-score)” value [30] was -0.1. The “glycan array binding signal (z-score)” value [31] was 0.028, the “glycan array binding signal (z-score)” value [32] was -0.286 and the “glycan array binding signal (z-score)” value [33] was -0.231. The “glycan array binding signal (z-score)” value [34] was -0.255, the “glycan array binding signal (z-score)” value [35] was -0.14 and the “glycan array binding signal (z-score)” value [36] was -0.104. For the same binder, the “glycan array binding signal (z-score)” value [37] was -0.19 and the “glycan array binding signal (z-score)” value [38] was -0.194.
